Data on 4 substances can be found in US11155580B2, “Modified proteins and methods of use thereof” (YALE UNIVERSITY, priority 2013, dated 2021).

pEC50: −log10 of the molar value.

The experiment deals with U2OS(GIGI) cells. Put plainly: GIGI in lysates, stably transfected U2OS(GIGI) cells. The experiment is classed as cell-based. The settings on record: Dex-labeled peptides, 24 h, read-out: EC50 (eGFP expression, GIGI). The source says: RFUs are expressed±standard deviation (Excel). The maximum induction level is defined as RFUmax. Data were processed using Kaleidagraph and GraphPad Prism software. RFU=([I530]/[I580])−([I′530]/[I′580]) (1)
Y=Ymin+(Ymax−Ymin)/(1+10^logEC50-X) (2)
With “K^DexFACDICGRKFAISSNLNSHTKIHTP (KFACDICGRKFAISSNLNSHTKIHTP; N-terminal dexamethasone-labeled Lys) [ZFN2^Dex]”, the pEC50 (in general, −log10 of the EC50, conventionally taken in molar units) was 7.12. The value for “K^DexFQCRICMRNFSRSDNLARHIRTHTP (KFQCRICMRNFSRSDNLARHIRTHTP; N-terminal dexamethasone-labeled Lys) [ZFN3^Dex]” was 7.07; that for “K^DexFACDICGRKFATSGNLTRHTKIHLR (KFACDICGRKFATSGNLTRHTKIHLR; N-terminal dexamethasone-labeled Lys) [ZFN4^Dex]” was 7.15. With “K^DexFQCRICMRNFSDRSNLSRHIRTHTP (KFQCRICMRNFSDRSNLSRHIRTHTP; N-terminal dexamethasone-labeled Lys) [ZFN1^Dex]” the figure was 7.13.
